# Test results published in PubChem BioAssay AID488969 (Vanderbilt High Throughput Screening Facility, 2010).
# Over roughly 110,000 compounds, “z-score” has its median near -0.1; the highest 2% begin near 2. The list shows a part of the results.
# Target: Metabotropic glutamate receptor 8 (Rattus norvegicus) (UniProt P70579)
# Assay: mGluR8 Gi/Go-coupled signaling modulation – cell-based, rat, thallium flux, HTS, primary screen (AID 488969)
# Conditions: HEK293 rat mGluR8, GIRK (G protein-gated inwardly rectifying potassium channel) thallium flux, FluoZin2; at 10 µM; stronger effect = higher value; submaximal glutamate (EC20) added with thallium
# UniProt P70579, sequence (P70579 whole entry, looked up): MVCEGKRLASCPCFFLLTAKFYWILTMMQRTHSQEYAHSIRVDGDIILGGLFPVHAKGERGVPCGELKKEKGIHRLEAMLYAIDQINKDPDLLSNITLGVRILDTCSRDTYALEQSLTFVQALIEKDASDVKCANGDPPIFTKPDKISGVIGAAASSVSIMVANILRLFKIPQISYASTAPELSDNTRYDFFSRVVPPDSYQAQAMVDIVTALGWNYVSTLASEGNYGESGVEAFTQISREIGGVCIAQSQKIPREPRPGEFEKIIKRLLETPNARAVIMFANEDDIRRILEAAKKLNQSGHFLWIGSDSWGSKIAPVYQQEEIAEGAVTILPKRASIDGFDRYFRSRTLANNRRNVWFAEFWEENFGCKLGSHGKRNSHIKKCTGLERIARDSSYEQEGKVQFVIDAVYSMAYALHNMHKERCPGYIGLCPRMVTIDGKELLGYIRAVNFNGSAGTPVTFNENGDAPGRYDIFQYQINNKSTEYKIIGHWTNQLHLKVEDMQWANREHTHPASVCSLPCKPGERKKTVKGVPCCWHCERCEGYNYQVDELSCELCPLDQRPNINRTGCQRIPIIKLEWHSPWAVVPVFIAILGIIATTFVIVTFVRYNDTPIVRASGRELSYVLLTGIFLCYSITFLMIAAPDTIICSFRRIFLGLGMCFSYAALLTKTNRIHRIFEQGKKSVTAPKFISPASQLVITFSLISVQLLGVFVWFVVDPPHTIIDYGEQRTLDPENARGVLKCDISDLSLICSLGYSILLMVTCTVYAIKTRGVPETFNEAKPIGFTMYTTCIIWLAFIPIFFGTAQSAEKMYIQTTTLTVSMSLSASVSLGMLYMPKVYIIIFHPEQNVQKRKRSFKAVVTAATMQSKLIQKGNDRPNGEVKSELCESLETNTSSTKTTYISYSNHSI
row,Structure (SMILES),z-score
1,Cc1ccc(S(=O)(=O)N2CCN(C(=O)CCN3C(=O)c4ccccc4C3=O)CC2)cc1C,-0.148
2,CCc1cc(-c2n[nH]c(=S)n2-c2ccccc2C)cs1,-0.325
3,CC1CN(C(=O)C2CCCC2)C(C)CN1C(=O)C1CCCC1 (configuration not stated),0.888
4,COC(=O)c1ccc2c(c1)C(C)(C)C(/C=C/c1ccccc1O)=[N+]2C,-0.714
5,O=C(NC1CCCCC1)C1CCN(c2nccs2)CC1,-0.0726
6,O=C(NCCOC(=O)c1ccc(Cl)cc1)c1cccnc1,1.01
7,O=C(NC1(C(F)(F)F)C(=O)Nc2c1c(=O)[nH]c(=O)n2Cc1ccco1)C1CC1 (configuration not stated),-0.556
8,Nc1nnc(CCOc2ccc(Cl)cc2)s1,-0.144
9,Cc1nc(-n2[nH]c3c(c2=O)CCCC3)[nH]c(=O)c1Cc1ccccc1,-0.872
10,CCOC(=O)c1c(N2C(=O)C3CC(C)=C(C)CC3C2=O)sc(C)c1C (configuration not stated),-0.882
11,CCOC(=O)c1ccc(-n2[nH]c(-c3ccccc3)cc2=O)cc1,0.242
12,CCC(c1nnnn1CCOC)N1CCN(Cc2ccccc2OC)CC1 (configuration not stated),0.442
13,CC(=O)c1cn(CC(=O)NCc2cccnc2)c2ccccc12,0.276
14,Cc1ccc(C(C)C)c(OCC(=O)Nc2ccc(Cl)cn2)c1,0.385
15,Cc1ccc(C(=O)N(CC(=O)Nc2ccc(Cl)c(Cl)c2)Cc2ccco2)cc1,-0.81
16,COc1ccccc1NC1=NC(c2ccc(Cl)cc2)N=C(N)N1 (configuration not stated),1.88
17,O=C(Nc1cccc(Cl)c1)ON=C1c2ccccc2-c2ccccc21,0.349
18,COc1ccc(NC(=O)COC(=O)CCCOc2ccc(Cl)cc2Cl)cc1,-0.0404
19,CC(=O)N(/N=C/c1cccc(C)c1)c1nc(-c2ccc(Br)cc2)cs1,-0.163
20,CCCCCCOC(=O)Sc1nc2ccccc2o1,0.0536
21,O=C(CSc1ccc2c(c1)OCCO2)Nc1ncc(Cl)cc1Cl,-0.149
22,Cc1nc(NC(=O)c2ccccc2)sc1-c1csc(NCc2ccccc2)n1,0.38
23,O=C(CCCOc1ccc(Cl)cc1)Nc1nncs1,0.62
24,Cc1ccc(-c2nc(N)n(C(=O)Cc3ccccc3)n2)cc1,0.176

row,Structure (SMILES),z-score
1,O=C1[C@@H]2[C@@H]3C[C@@H]([C@H]4ON=C(c5ccc(Cl)cc5Cl)[C@@H]34)[C@@H]2C(=O)N1C1CCCCC1,-0.5
2,CC1CCCCN1c1nnc(N)s1 (configuration not stated),-0.152
3,CC(C)(C)C(=O)NC(=S)Nc1cc(C(F)(F)F)ccc1N1CCOCC1,0.0538
4,O=C1CC(c2ccccc2)c2ccc(O)cc2O1 (configuration not stated),-1.31
5,CCc1cc(C(=O)O)c(NC(=O)C(c2ccccc2)c2ccccc2)s1,-0.0977
6,NS(=O)(=O)c1cccc(NC(=O)CSc2ccccn2)c1,-0.121
7,CCOC(=O)N1CCC(NC(=O)c2cc3cc4cc(OC)ccc4nc3o2)CC1,-0.795
8,COc1ccc(N=C2SC(C(=O)O)CC(=O)N2Cc2ccc(OC)c(OC)c2)cc1 (configuration not stated),-0.441
9,CCOCCOCCC(C(=O)O)P(=O)(c1ccccc1)c1ccccc1 (configuration not stated),0.307
10,COC(=O)c1ccccc1NC(=O)CCS(=O)(=O)c1ccc(Br)s1,0.448
11,CCCCCCc1nc2ccccc2c(=O)n1NC(=O)c1c(O)c2cccc3c2n(c1=O)CC3,-0.113
12,Cc1cccc(NC2=NC3(CCCCC3)N=C(N)N2)c1,0.0139
13,COc1cc(/C=C(\NC(C)=O)C(=O)Nc2ccc(NC(C)=O)cc2)ccc1OC(C)=O,-0.0649
14,N#Cc1cc2c(nc1SCc1cccnc1)CCCCC2,-0.348
15,Cc1cccc(N2CCN(C(=O)CCCOc3ccccc3)CC2)c1C,-2.63
16,CC(C)(C)c1cc(NS(=O)(=O)c2ccc3c(c2)OCCO3)on1,-0.178
17,Cc1cccc(NS(=O)(=O)c2ccc(C3CCCCC3)cc2)c1,-0.494
18,COc1cc([N+](=O)[O-])ccc1NC(=O)CN(C)C,-0.0308
19,CCCCN1C(=O)c2ccc(C(=O)NCCN3C(=O)S/C(=C\c4cccnc4)C3=O)cc2C1=O,-0.796
20,Fc1ccc(Oc2ncccn2)c(F)c1,0.118
21,C/C(CC(=O)Nc1ccccn1)=N\NC(=O)C(=O)Nc1cccc(Cl)c1C,0.436
22,COc1ccc(OCC(=O)NNc2c3ccccc3nc3ccccc23)cc1,-0.462
23,O=C(Cc1c(C(=O)O)[nH]c2ccccc12)NCCN1CCN(c2ccccc2F)CC1,0.0465
24,O=C(Nc1ccccc1)/C(=C\c1ccncc1)NC(=O)c1ccccc1,-0.0744

row,Structure (SMILES),z-score
1,CCN(CC)CCCNC(=O)CC1Oc2ccc(C)cc2NC1=O (configuration not stated),-0.335
2,O=C(c1ccc2nccnc2c1)N1CCN(Cc2ccc3c(c2)OCO3)CC1,1.16
3,COc1ccc(CCn2nnc(-c3ccc(NC(C)=O)c(Cl)c3)n2)cc1,0.0768
4,Cc1ccccc1OCc1nc(-c2ccc(NC(=O)c3cccs3)cc2)no1,-0.2
5,COc1cccc(-c2ncc3ccccn23)c1,0.279
6,Cc1ccc(C)c(N(C(=O)Cc2cccs2)C(C(=O)NC2CCCC2)c2ccc(C)o2)c1 (configuration not stated),-0.0192
7,CCn1c(SCC(=O)Nc2cc(NC(C)=O)ccc2OC)nnc1-c1ccccn1,-0.2
8,CC[n+]1c(C)sc2c(C)cc(C)cc21,-0.0785
9,Cc1c(=O)n(OCc2cccc(F)c2)c2ccccc2[n+]1[O-],0.132
10,CC1Oc2ccccc2N(CC(=O)N(Cc2ccccc2)Cc2ccccn2)C1=O (configuration not stated),0.37
11,CCOc1cccc(C(=O)Nc2nccs2)c1,-0.0912
12,O=C(O/N=C/c1cccc([N+](=O)[O-])c1)C1CC1,0.0781
13,Cn1cc(C(=O)Nc2ccc(F)c(F)c2)cn1,0.0938
14,O=C(Cc1ccc(-n2c(=S)[nH]c3ccccc3c2=O)cc1)N1CCN(c2ccccc2)CC1,-0.757
15,c1ccc(-c2nc3ccccc3o2)nc1,0.78
16,Nc1c(-c2ccc(F)cc2)cnc2ncnn12,-0.163
17,CCOc1ccc(CCNC(=O)C(O)c2ccccc2)cc1 (configuration not stated),0.228
18,Cc1cc(C)nc(SCc2ccc3nonc3c2)n1,-0.825
19,O=C(Nc1ccccc1F)C1CCCN(S(=O)(=O)c2cccc3cccnc23)C1 (configuration not stated),0.371
20,O=C(c1ccco1)N1CCN(CC(=O)N2c3ccccc3CCc3ccccc32)CC1,-0.317
21,c1ccc(-c2csc(NNC3=NCCCCC3)n2)cc1,0.0175
22,CS(=O)(=O)c1ccc(Cl)c(NC(=O)CSc2nc3ccccc3c(=O)n2CCCN2CCOCC2)c1,-0.358
23,O=C(CCNS(=O)(=O)c1ccc(Br)s1)N1CCN(c2ccccc2)CC1,-0.575
24,Cc1ccc(NC(=O)N2CCC(C(=O)NCC(C)C)CC2)cc1,0.0784
